± gives the standard deviation of the averaged measurements. Some of the results follow.

In the experiment the test system is PfAP2-EXP AP2 domain (GST-tagged). Briefly: gcPBM binding intensity (ln(normalized median fluorescence intensity)); higher = stronger DNA binding. Summed up: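 Each value is the highest Masliner-normalised natural-log median intensity across replicate spots of either orientation of a probe. The probes were primer-extended double-stranded 36-bp intergenic genomic sequences on an Agilent 4 × 180k array, alongside negative controls, exposed for 1 h to GST-tagged P. falciparum DNA-binding domains expressed in E. coli. Bound protein was picked up with Alexa488 anti-GST antibody and scanned at 488 nm.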
On to TTGTTTATGTGAGAAGTGCATTTTTTCGTTCATGTA, for which the “gcPBM binding intensity (ln)” value was 8.61 ± 0.35.

Take ATGTAAGTATAAAATGTGCGCATTGGGAATGAGGAC: the “gcPBM binding intensity (ln)” value was 9.46 ± 0.5.

In the case of “TAATATATAAATATATGTACATAATAAATAGGATAT [XGTACX_site3661]”, the “gcPBM binding intensity (ln)” value was 8.89 ± 0.45. The figure for “TTTATATAAGGACATGCATGCTATTATTAAATATAT [TGCATGCA_site1011]” is 9.82 ± 0.16; for “ACTTCATAGGTTACCTGTACATATAAGGAGTTATCA [XGTACX_site4110]” it is 8.76 ± 0.51; for “TACGCGAAATGAATATGTACATATATGAGGGCATAT [XGTACX_site4293]” it is 9.1 ± 0.45.

Take “GGAAACCCTCCCAAATGTACTTTTATAAAAAAATAC [XGTACX_site5502]”: the “gcPBM binding intensity (ln)” value stood at 9.37 ± 0.63.

Take “TTTGCCATAAAACACACACACATGTAAACCCCCTTT [CACACA_site1646]”: the “gcPBM binding intensity (ln)” value came to 9.52 ± 0.61.

Regarding “ATATAAGTACATATAACACACATATATTATAAGTAT [CACACA_site2647]”, the “gcPBM binding intensity (ln)” value came to 8.44 ± 0.26. Consider “TATACTCAGAAACACACACACACACCCAAAAAAAAA [CACACA_site4434]”, for which the “gcPBM binding intensity (ln)” value is 8.66 ± 0.38.

With “ATACATATATAAATATGTACACACATATGTATGATC [XGTACX_site8219]”, the “gcPBM binding intensity (ln)” value stood at 8.62 ± 0.23. Then “AAAAAAAAAAAAAAAACACACATACACCCAGACACA [CACACA_site5807]”, with 8.76 ± 0.41.

Consider “GATATAAGGGTATGAAGTACATAAATATTTTATGCT [XGTACX_site1886]”, for which the “gcPBM binding intensity (ln)” value stood at 8.54 ± 0.43.

Take “TTTTTATTTTTTGTCTGTACATATATAAATTTATTA [XGTACX_site1525]”: the “gcPBM binding intensity (ln)” value is 8.77 ± 0.43. On to “TATGCACGCGAACACACACACACAACTAAAAAATAA [CACACA_site7251]”, for which the “gcPBM binding intensity (ln)” value was determined as 8.63 ± 0.49. On to “AGAATAGTGGAAAACACACACGTTTGAGATATGGAC [CACACA_site4782]”, for which the “gcPBM binding intensity (ln)” value turned out to be 9.13 ± 0.45. The figure for “TTATAAAAAGAACAATTAAAAAAAAATAAAATAAAA [XGTACX_negctrl_site398]” is 8.32 ± 0.57; for “GCACGTGTGATTAGATGTACATAACATGTATATGTC [XGTACX_site4632]” it is 8.64 ± 0.39; for “TTTTTATGTTCTATATATATATATATATATATATAT [GTGCAC_negctrl_site306]” it is 10.1 ± 0.44. Then “CACCCACCCACATACACACACATACACATATATATA [CACACA_site1722]”, with 9.3 ± 0.45; and “ATACATACATATGTATGTACGTATGTATGTATGTAT [XGTACX_site3853]”, with 8.49 ± 0.16; and “CAAATAAAAAAAGTAGCACACATGAATAAAATATAT [CACACA_site3130]”, with 8.96 ± 0.48. Take “CATAATATATATTGAGCATGCTACTATTGTTAGAAA [TGCATGCA_site740]”: the “gcPBM binding intensity (ln)” value came to 9 ± 0.31. “ACATATAAGATATATACACACATATAAATACATTAA [CACACA_site7763]”: the “gcPBM binding intensity (ln)” value worked out at 8.29 ± 0.4.

Consider “AAAAAAAAAAACTACACACATACAAATATTTATATA [CACACA_site2574]”, for which the “gcPBM binding intensity (ln)” value was 8.32 ± 0.59. Then “ATATATATGTATATATGTACATATATGTATATATAT [XGTACX_site4772]”, with 8.66 ± 0.17; and “ATAATATATGCAAAAACATGCACATAATATGTAAAA [TGCATGCA_site742]”, with 8.48 ± 0.28.

Regarding “ATAATTTTATATAAATGTACATACATTTTTATTATA [XGTACX_site7368]”, the “gcPBM binding intensity (ln)” value came out at 8.35 ± 0.32. The figure for “TAATAAGTATCAAAATGTACATGACAAAAATAATTT [XGTACX_site8961]” is 8.78 ± 0.4; for “TCTAAAAAAATTATATCACACATTATAAAGCATATT [CACACA_site4885]” it is 8.19 ± 0.36. The figure for “TATACACATAGACACACACACATACACGCACATACA [CACACA_site6908]” is 8.76 ± 0.49; for “TGATAAATTTTCACATGTACATATATAGAATAACCT [XGTACX_site2860]” it is 8.8 ± 0.28; for “ATTAAATCATATGAATGTACGGATATATATATTTCC [XGTACX_site8650]” it is 8.54 ± 0.36. Then “ATTTGAAAAAATACTACACACCATATTGTTAATTTT [CACACA_site3829]”, with 8.21 ± 0.35. For the sequence “AAGATTCATATAAAAAGTACAAAAAGAAAAAAATAA [XGTACX_site6033]”, the “gcPBM binding intensity (ln)” value stood at 8.66 ± 0.5. The figure for “ATATCTTCACTTATATGTACTTACATTTTTTTTTTT [XGTACX_site8696]” is 8.87 ± 0.56; for “ATAACTATATACATCTGTACATAATACATAGATAAA [XGTACX_site2795]” it is 8.64 ± 0.59. Then “ATTTGTATATAATATATATAATTTTTTTTTTTTGTT [XGTACX_negctrl_site425]”, with 8.2 ± 0.31; and “TTTTTTTTTTTTTTTACACACATTTGAATAACTTTA [CACACA_site6810]”, with 8.26 ± 0.49. Then “TATATGGGATATATGTGTACATATAAAATATGTATC [XGTACX_site3365]”, with 8.44 ± 0.34; and “AAAAGAATTAAAAAATGTACATATAATATATATATA [XGTACX_site6721]”, with 9.41 ± 0.19; and “CTTAATATGAATAAAACACACATATATAATTTGTAA [CACACA_site5120]”, with 8.24 ± 0.3. For the sequence “AAAAAAGAAGACATCTAAGTAATAGTAACAATGTAT [CACACA_negctrl_site1660]”, the “gcPBM binding intensity (ln)” value was found to be 8.72 ± 0.44. The figure for “GACATATTATTCATGTGTACATATTATATGTATATA [XGTACX_site3442]” is 8.59 ± 0.3.

Source of the values: the supplement of paper PMC11417369.
